{"source": "the supplement of paper PMC3334620", "note": "Whole data set: some 33,000 sequences, median “E-score (-0.5 to 0.5)” near -0.053, cut for the highest 2% near 0.37. This is one part of the list."}
{"target": "Hap1 (UniProt P0CE41)", "sequence (P0CE41 whole entry, the tested form may be a part)": "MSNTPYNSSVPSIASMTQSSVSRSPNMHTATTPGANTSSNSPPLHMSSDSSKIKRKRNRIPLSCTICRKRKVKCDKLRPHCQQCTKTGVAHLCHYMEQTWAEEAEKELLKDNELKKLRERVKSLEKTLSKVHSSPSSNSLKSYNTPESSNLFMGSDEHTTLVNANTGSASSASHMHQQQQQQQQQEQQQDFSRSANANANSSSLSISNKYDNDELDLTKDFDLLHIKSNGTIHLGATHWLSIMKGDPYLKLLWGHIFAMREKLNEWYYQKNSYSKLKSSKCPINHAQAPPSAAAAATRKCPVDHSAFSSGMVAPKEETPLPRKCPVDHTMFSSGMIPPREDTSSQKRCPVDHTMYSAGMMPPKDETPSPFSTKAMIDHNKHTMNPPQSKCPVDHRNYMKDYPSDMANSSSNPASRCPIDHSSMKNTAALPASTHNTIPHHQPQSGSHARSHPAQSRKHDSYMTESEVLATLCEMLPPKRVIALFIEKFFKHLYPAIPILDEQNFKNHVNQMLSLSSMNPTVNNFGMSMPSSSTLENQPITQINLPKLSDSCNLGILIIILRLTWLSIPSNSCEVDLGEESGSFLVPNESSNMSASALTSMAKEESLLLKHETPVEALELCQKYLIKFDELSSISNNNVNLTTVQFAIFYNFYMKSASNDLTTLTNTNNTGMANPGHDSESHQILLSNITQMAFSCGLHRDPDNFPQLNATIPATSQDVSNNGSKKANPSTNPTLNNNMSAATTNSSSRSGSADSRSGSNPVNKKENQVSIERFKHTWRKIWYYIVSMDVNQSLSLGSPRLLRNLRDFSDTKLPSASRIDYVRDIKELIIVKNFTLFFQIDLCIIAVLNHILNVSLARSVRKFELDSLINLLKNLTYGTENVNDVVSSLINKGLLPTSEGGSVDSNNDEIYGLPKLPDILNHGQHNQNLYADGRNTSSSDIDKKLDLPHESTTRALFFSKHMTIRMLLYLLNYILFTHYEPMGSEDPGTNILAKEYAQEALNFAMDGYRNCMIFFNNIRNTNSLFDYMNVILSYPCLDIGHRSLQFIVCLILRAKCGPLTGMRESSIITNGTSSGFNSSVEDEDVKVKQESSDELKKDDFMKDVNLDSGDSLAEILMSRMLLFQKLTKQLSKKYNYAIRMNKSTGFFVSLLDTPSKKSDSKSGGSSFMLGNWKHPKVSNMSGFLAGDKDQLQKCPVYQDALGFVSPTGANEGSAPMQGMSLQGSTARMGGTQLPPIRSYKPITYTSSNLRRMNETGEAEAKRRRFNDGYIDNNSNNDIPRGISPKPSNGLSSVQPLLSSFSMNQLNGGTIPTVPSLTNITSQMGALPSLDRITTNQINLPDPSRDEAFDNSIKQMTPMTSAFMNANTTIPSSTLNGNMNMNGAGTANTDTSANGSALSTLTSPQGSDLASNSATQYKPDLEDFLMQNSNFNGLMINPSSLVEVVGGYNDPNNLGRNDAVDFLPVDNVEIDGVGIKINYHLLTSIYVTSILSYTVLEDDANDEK", "assay": "PBM E-score (8-mer binding enrichment) (E-score (-0.5 to 0.5)); higher = stronger / more preferred TF binding; most listed sequences are background and not binding sites", "conditions": "protein concentration: 200 nM; construct: GST-DNA-binding domain", "procedure": "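Universal 'all 10-mer' protein binding microarrays (Agilent AMADID 015681) probed with GST-tagged S. cerevisiae TFs (full-length or DBD) made by in vitro transcription/translation (PURExpress), about 100-200 nM. Bound TF was detected with fluorescent anti-GST. Each ungapped 8-mer (which stands for itself and its reverse complement) is scored by the PBM enrichment score (E-score), a modified Wilcoxon-Mann-Whitney statistic from -0.5 to +0.5, computed with the Universal PBM Analysis Suite. Scale: above 0.35 generally sequence-specific binding.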"}
{"sequence": "AACCTGAA", "PBM E-score": -0.254}
{"sequence": "GCCGAACA", "PBM E-score": 0.233}
{"sequence": "TTCAACAA", "PBM E-score": -0.0945}
{"sequence": "CCAACTAG", "PBM E-score": -0.272}
{"sequence": "ACCTTGCT", "PBM E-score": -0.142}
{"sequence": "ATATGGAT", "PBM E-score": -0.174}
{"sequence": "TAGCGGAA", "PBM E-score": 0.298}
{"sequence": "ATCCACTG", "PBM E-score": -0.041}
{"sequence": "ACAGCTAG", "PBM E-score": -0.142}
{"sequence": "CGGCACGC", "PBM E-score": 0.161}
{"sequence": "GGGGATCA", "PBM E-score": 0.0146}
{"sequence": "CTGTCTTC", "PBM E-score": -0.0708}
{"sequence": "CAAAGCAC", "PBM E-score": -0.138}
{"sequence": "ACTTCGGG", "PBM E-score": 0.247}
{"sequence": "AAAGTCCC", "PBM E-score": 0.0658}
{"sequence": "GATAGAGC", "PBM E-score": 0.132}
{"sequence": "AAAGTTCA", "PBM E-score": 0.00735}
{"sequence": "ACTTTACG", "PBM E-score": -0.0973}
{"sequence": "TGCCAAAA", "PBM E-score": -0.143}
{"sequence": "CGTGGGAA", "PBM E-score": -0.241}
{"sequence": "GTATTAAC", "PBM E-score": 0.218}
{"sequence": "AGCAGATA", "PBM E-score": 0.00637}
{"sequence": "CTTGCATA", "PBM E-score": -0.0856}
{"sequence": "GACTCAAC", "PBM E-score": 0.0012}
{"sequence": "ATTTTGAA", "PBM E-score": -0.0564}
{"sequence": "ATTTACGG", "PBM E-score": 0.238}
{"sequence": "GATACAAC", "PBM E-score": 0.215}
{"sequence": "TGCATGAA", "PBM E-score": -0.158}
{"sequence": "CCACTAAC", "PBM E-score": -0.171}
{"sequence": "CACCGTCG", "PBM E-score": 0.202}
{"sequence": "ATTTAGCC", "PBM E-score": 0.143}
{"sequence": "CCATTTAC", "PBM E-score": -0.0154}
{"sequence": "AAAGAGGT", "PBM E-score": -0.196}
{"sequence": "ACCACTAT", "PBM E-score": -0.215}
{"sequence": "AAGGGATT", "PBM E-score": -0.24}
{"sequence": "ACTGAGGA", "PBM E-score": -0.081}
{"sequence": "ACCCAGCG", "PBM E-score": -0.104}
{"sequence": "AGGCCGAA", "PBM E-score": 0.297}
{"sequence": "GACATTAC", "PBM E-score": 0.0642}
{"sequence": "GGCGATAA", "PBM E-score": 0.392}
{"sequence": "CACATCCC", "PBM E-score": 0.0843}
{"sequence": "ATGATGAA", "PBM E-score": 0.0397}
{"sequence": "CATAGTGG", "PBM E-score": -0.141}
{"sequence": "AGAAGCAG", "PBM E-score": -0.274}
{"sequence": "CTCTGGTA", "PBM E-score": -0.264}
{"sequence": "AGCCGTGG", "PBM E-score": -0.00519}
{"sequence": "ACAAGGTG", "PBM E-score": -0.159}
{"sequence": "GACGAGGA", "PBM E-score": -0.155}
{"sequence": "TATCGCGA", "PBM E-score": 0.191}
{"sequence": "ACCAACTG", "PBM E-score": -0.157}
{"sequence": "AGATCGTC", "PBM E-score": -0.163}
{"sequence": "AGTCGAGG", "PBM E-score": -0.204}
{"sequence": "TAATAGAA", "PBM E-score": -0.157}
{"sequence": "ACTTACCA", "PBM E-score": -0.084}
{"sequence": "CCTTGGGA", "PBM E-score": -0.149}
{"sequence": "ACCCCGAC", "PBM E-score": 0.308}
{"sequence": "CGGGCTAA", "PBM E-score": 0.269}
{"sequence": "GAACGAAC", "PBM E-score": -0.055}
{"sequence": "AAAGTCCA", "PBM E-score": -0.0824}
{"sequence": "AGCCTGGA", "PBM E-score": -0.123}
{"sequence": "AATCCCTA", "PBM E-score": -0.0478}
{"sequence": "AGGGCTAG", "PBM E-score": -0.229}
{"sequence": "ACTATCCT", "PBM E-score": -0.0572}
{"sequence": "CTCAACTA", "PBM E-score": 0.0118}
{"sequence": "AGGGTCAG", "PBM E-score": -0.191}
{"sequence": "AGACAGAC", "PBM E-score": -0.0391}
{"sequence": "ATATAGAA", "PBM E-score": -0.0207}
{"sequence": "GTAGACTA", "PBM E-score": -0.104}
{"sequence": "GAGATGGC", "PBM E-score": 0.206}
{"sequence": "GTCCAGAA", "PBM E-score": -0.0915}
{"sequence": "CGTCACCC", "PBM E-score": 0.0193}
{"sequence": "CATAGCGA", "PBM E-score": -0.0641}
{"sequence": "GTCCCTGA", "PBM E-score": -0.219}
{"sequence": "AGGTGGGG", "PBM E-score": -0.156}
{"sequence": "CACAGTTC", "PBM E-score": 0.00993}
{"sequence": "CACTTTCG", "PBM E-score": 0.0972}
{"sequence": "AAAATGGC", "PBM E-score": 0.0713}
{"sequence": "TGCATTAA", "PBM E-score": -0.134}
{"sequence": "TCTTACCA", "PBM E-score": -0.223}
{"sequence": "CAAGTAGA", "PBM E-score": -0.055}
{"sequence": "AGGGACGA", "PBM E-score": -0.0468}
{"sequence": "CCGGCAAC", "PBM E-score": 0.373}
{"sequence": "CTAGGAAA", "PBM E-score": -0.178}
{"sequence": "ATGACTGG", "PBM E-score": -0.0207}
{"sequence": "CCGTCCCG", "PBM E-score": 0.261}
{"sequence": "GAGCTATC", "PBM E-score": 0.229}
{"sequence": "CCTTATGC", "PBM E-score": 0.0545}
{"sequence": "GCGGCGGA", "PBM E-score": 0.382}
{"sequence": "CCTACCGC", "PBM E-score": 0.076}
{"sequence": "AGGTGTTC", "PBM E-score": -0.246}
{"sequence": "CAGGGGGG", "PBM E-score": -0.211}
{"sequence": "AGCTATTG", "PBM E-score": -0.0584}
{"sequence": "AAGAAGAA", "PBM E-score": -0.0097}
{"sequence": "GCGATATA", "PBM E-score": 0.24}
{"sequence": "ATGTCGCA", "PBM E-score": -0.0565}
{"sequence": "CAGAGGGA", "PBM E-score": -0.159}
{"sequence": "CGGAACAC", "PBM E-score": 0.327}
{"sequence": "AGTCGTTG", "PBM E-score": -0.254}
{"sequence": "ATACGCGC", "PBM E-score": -0.0101}
{"sequence": "TAATGCCA", "PBM E-score": -0.00036}
{"sequence": "GCCTCAAC", "PBM E-score": -0.13}
{"sequence": "ACTTCCTG", "PBM E-score": -0.224}
{"sequence": "GAATCAAA", "PBM E-score": -0.0308}
{"sequence": "ATACTTAC", "PBM E-score": -0.0441}
{"sequence": "CGATGCAG", "PBM E-score": -0.0118}
{"sequence": "TAGACACA", "PBM E-score": -0.156}
{"sequence": "AGTTGTCA", "PBM E-score": -0.106}
{"sequence": "TCTATCCA", "PBM E-score": -0.0338}
{"sequence": "ACTTATCA", "PBM E-score": -0.148}
{"sequence": "ATAAGGGG", "PBM E-score": 0.103}
{"sequence": "GACAACAA", "PBM E-score": -0.23}
{"sequence": "AGAGATAT", "PBM E-score": -0.111}
{"sequence": "AATTTTCC", "PBM E-score": 0.33}
{"sequence": "GAGTGCAC", "PBM E-score": -0.0682}
{"sequence": "AGTGAAGA", "PBM E-score": -0.0142}
{"sequence": "AGCGGAAG", "PBM E-score": 0.244}
{"sequence": "AACATTTA", "PBM E-score": -0.0693}
{"sequence": "AGCCATGA", "PBM E-score": -0.0149}
{"sequence": "GGGAGCCC", "PBM E-score": -0.0881}
{"sequence": "AAAGAACA", "PBM E-score": -0.191}
{"sequence": "CTGTTGTA", "PBM E-score": -0.126}
{"sequence": "TAACTTCA", "PBM E-score": -0.188}
{"sequence": "CAGATTAG", "PBM E-score": -0.167}
{"sequence": "CGGGAAAA", "PBM E-score": 0.197}
{"sequence": "CCTATAAA", "PBM E-score": -0.0104}
{"sequence": "GCCGGCGA", "PBM E-score": 0.364}
{"sequence": "CCAGTGCC", "PBM E-score": -0.00478}
{"sequence": "ATTTTGCA", "PBM E-score": -0.154}
{"sequence": "GACCGGCC", "PBM E-score": 0.33}
{"sequence": "AGCCGTAT", "PBM E-score": -0.0519}
{"sequence": "CCGCGCAC", "PBM E-score": 0.0776}
{"sequence": "AATCAAAA", "PBM E-score": -0.00327}
{"sequence": "CAATTAAC", "PBM E-score": 0.148}
{"sequence": "CCCGCCGG", "PBM E-score": 0.363}
{"sequence": "ACGTAGTC", "PBM E-score": -0.134}
{"sequence": "GAGGCAGA", "PBM E-score": -0.261}
{"sequence": "ACGCAGCC", "PBM E-score": -0.0627}
{"sequence": "AAATTAGT", "PBM E-score": -0.114}
{"sequence": "AAAAGCCG", "PBM E-score": 0.414}
{"sequence": "AGGTGGAC", "PBM E-score": -0.18}
{"sequence": "GTTCCGCA", "PBM E-score": 0.209}
{"sequence": "GAACGGTA", "PBM E-score": -0.0132}
{"sequence": "CCAGTACA", "PBM E-score": -0.124}
{"sequence": "ATCTTGAC", "PBM E-score": -0.203}
{"sequence": "AATTGGCA", "PBM E-score": -0.23}
{"sequence": "AGGGGTTC", "PBM E-score": -0.0848}
{"sequence": "GGTCCAGA", "PBM E-score": -0.0162}
{"sequence": "CGTGAATC", "PBM E-score": -0.0317}
{"sequence": "AAGTAGAT", "PBM E-score": 0.0343}
{"sequence": "ACGATGCG", "PBM E-score": -0.207}
{"sequence": "CGCTCACG", "PBM E-score": 0.118}
{"sequence": "AACGTACG", "PBM E-score": -0.141}
{"sequence": "ACTGCCTG", "PBM E-score": -0.243}
{"sequence": "ACGTGAAT", "PBM E-score": -0.229}
{"sequence": "CGTCTACC", "PBM E-score": 0.0142}
{"sequence": "GCGGCTAC", "PBM E-score": 0.207}
{"sequence": "GTGTTCGA", "PBM E-score": -0.161}
{"sequence": "CGTTTTCA", "PBM E-score": 0.0032}
{"sequence": "CCGCCCCG", "PBM E-score": 0.347}
{"sequence": "ATAAAATA", "PBM E-score": -0.0837}
{"sequence": "AAACGTCC", "PBM E-score": -0.091}
{"sequence": "GATGTCGC", "PBM E-score": 0.0644}
{"sequence": "CTCATACC", "PBM E-score": -0.0563}
{"sequence": "GATTGGGA", "PBM E-score": -0.186}
{"sequence": "CGCTAGTA", "PBM E-score": 0.22}
{"sequence": "CTGGTGGC", "PBM E-score": -0.294}
{"sequence": "AATCTCAG", "PBM E-score": -0.161}
{"sequence": "GCTTCACA", "PBM E-score": -0.21}
{"sequence": "ACTTCTTG", "PBM E-score": -0.128}
{"sequence": "AGTCGCAT", "PBM E-score": -0.159}
{"sequence": "ATTATGAA", "PBM E-score": -0.0166}
{"sequence": "GCTCAAAC", "PBM E-score": 0.18}
